Human monoclonal antibodies (heavy:light variable regions, translated from the printed DNA). IC50 against SARS-CoV-2 spike pseudoviruses, on VSV particles in 293T-ACE2 cells (24 h) or MLV particles in HeLa-ACE2 cells (72 h); lower = stronger; >1.0 µg/ml as printed. No active / inactive call per row; the paper counts an IC50 of 0.4 µg/ml or less on any variant as neutralizing. Only 98 of the paper's 459 antibodies have neutralization values; the two systems are not on one scale.
Biological target: SARS-CoV-2 index (Wuhan-Hu-1) spike pseudovirus
Experiment: pseudovirus neutralization IC50; higher = weaker neutralization
Details: system: VSV particle, 293T-ACE2 cells
Protocol: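 Single-round reporter pseudovirus mixed with dilutions of yeast-made human IgG and put on ACE2-bearing cells; IC50 from the dose curve.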

| Binder | pseudovirus neutralization IC50 [µg/mL] |
| --- | --- |
| ADI-67664 (protein) chain 1: QVQLVESGGGVVQPGRSLRLSCAASGFTFNRYGIHWVRQAPGKGLEWVAFISHDGSKNWYADSVKGRFTISRDNSKNTQYLQMNSLRGEDTAVYYCAKSLLGGYYARLYDYYGMDVWGQGTTVTVSS chain 2: QSALTQPPSASGSPGQSVTISCTGTSSDVGGYNYVSWFQQHPGRAPKLLIYEVNKRPSGVPDRFSGSKSGNTASLTVSGLQAEDEADYYCSSYAGSNLWVFGGGTKLTVL | > 1 |
| ADI-67665 (protein) chain 1: QVQLQESGPRLVKPSETLSLICTVSGGSVSGYYWSWFRQPPGKGLEWIGYIYGTGPTKFNPSLKSRFSMSVDTSKNQFSLKLISVSAADTAVYYCARGFETWGQGTTVTVSS chain 2: EIVLTQSPGTLSLSPGDRATLSCRASQSFSSNYLAWFQQKPGQAPRLLIYAASSRAIGIPDRFSGSGSGTDFTLTISRLEPEDFAIYYCLQSGGSWTFGQGTKVEIK | > 1 |
| ADI-67120 (protein) chain 1: QVQLVESGGGAVQPGRSLRLSCAASGFTFSNYGMHWVRQAPGKGLEWVAVMSYDGGDKHYADSVKGRFTISRDNSMHTLYLQMNSLRPEDTAVYYCAKAGYGYAYPWTYFDYWGQGTLVTVSS chain 2: DIQMTQSPSTLSASVGDRVTITCRASQSISTWLAWYQQKPGKAPKLLIYEASGLESGVPSRFSGSGSGTEFTLTITSLQPDDFATYYCQQYNSYWTFGQGTKVEIK | > 1 |
| ADI-67133 (protein) chain 1: QVQLVESGGGVVQPGRSLRLSCAASGFPFNNYAMHWVRQAPGKGPEWVAVISYDGSNKYYGDSVKGRFTISRDNSKSTLYLQMDSLRTEDTAVYYCAKGLSYGYVYFFDYWGQGTLVTVSS chain 2: DIQMTQSPSSLSASVGDRVTITCQASQDITNYLNWYQQKPGKAPKLLIYDASDLETGVPLRFSGSGSGTDFTFTISSLQHEDIATYYCQQYNNLPITFGQGTRLEIK | 0.527 |
| ADI-67132 (protein) chain 1: EVQLVESGGGLVQPGGSLRLSCAASGFTFSSYDMHWVRQATGKGLEWVSLIGTAGDTYYPDSVKGRFTISRENAKNSLYLQMNSLRAGDTAVYYCARATTNMVRGVSPLDYYYGMDVWGQGTTVTVSS chain 2: DIQMTQSPSSLSASVGDRVTITCRASQSISSYLNWYQQKPGKGPKLLIYAASSLQSGVPSRFSGSGSGTDFTLTISSLQPEDFATYYCQQSYNIPPITFGQGTRLEIK | > 1 |
| ADI-67136 (protein) chain 1: QITLKESGPTLVKPTQTLTLTCTFSGFSLSSNGVGVGWIRQPPGKALEWLALIYWNDEKRYSPSLKSRLTITKDTSKNHVVLTVTNMDPVDTATYSCAHSYYYDARGYCFDYWGQGTLVTVSS chain 2: DIQMTQSPSSVSASVGDRVTITCRASQGIVSWLAWYQQKPGKAPKLLIYDASTLQSGVPSRFSGSGSGTDFTLTISSLQPEDFATYYCQQANNFPITFGQGTRLEIK | > 1 |
| ADI-67217 (protein) chain 1: QVQLVQSGAEVKRPGASVKVSCKVSGYTLTELSIHWVRQAPGKGLEWMGGFDPEDAETIYAQNFQGRVTMTEDTSTDTAYMDLRSLRSDDTAVYYCATAFAVRLGELSSYSYYYGMDVWGQGTTVTVSS chain 2: DIVMTQTPLSSPVTLGQPASISCRSNQSLVHTDGNTYLSWLHQRPGQPPRLLIYMISNRFSGVPDRFSGSGAETDFTLKISRVEAEDVGVYYCMQARHFPHTFGQGTKVEIK | > 1 |
| ADI-67630 (protein) chain 1: QVQLVQSGAEVRKPGASVKVSCKVSEYTLIELSVHWVRQAPGKGLEWMGGFDPEDGKTIYAQKFQGRVTMTEDTSTDTAYMELSSLRSEDTAVYYCATVPPPIVEIPVPQRNWFAPWGQGTLVTVSS chain 2: DIQMTQSPSSLPASVGDRVTITCRASQSISSYLNWYQQKSGKAPKLLIYSASTLQSSVPSRFSGSGSGTDFSLTISSLHPEDFATYYCQQSYTTPYTFGQGTKVEIK | > 1 |
| ADI-67952 (protein) chain 1: QLQLQESGPGLVKPSETLSLTCTVSGASISSSSYYWGWIRQPPGKGLEWIGNIYYSGSTYYKASLKSRVTISVDTSKNQFSLKLNSVTAADTAVYFCARHLVPTFSYDSRGYSRIYPYWYFDLWGRGTLVTVSS chain 2: QSALTQPASVSGSPGQSITISCTGTSSDIGSYNLVSWYRQHPGKAPELLIYDVNKRPSGVSNRFSGSKSGNTASLTISGLQDEDEADYYCCSYAGSGTFVLFGGGTKLTVL | > 1 |
| ADI-67216 (protein) chain 1: QVQLQESGPGLVKPSQTLSLTCTVSGGSISSGGYYWTWIRQHPGKGLEWIGYIYYSGTTYYNPSLKSRVIISVDTSKNQFSLRLNSVTAADTAVYFCARGSSWRYNWFDPWGQGTLVTVSS chain 2: SYELTQPPSVSVSPGQTASITCSGDKLGDKYACWYQQKPGQSPVLVIFEDNKRPSGIPERFSGANSGNTATLTISGTQAMDEADYYCQAWDSSTVIFGGGTKLTVL | > 1 |
| ADI-67475 (protein) chain 1: EVQLLESGGGLVQPGGSLRLSCAASGFTFSSHAMTWVRQAPGKGLQWVSTISTSGDDTFYADSLKGRITISRDNSRNTLYLEMNSLRGEDTAVYYCAKGSSGAYPGSRTFDIWGQGTMVTVSS chain 2: DIVMTQSPDSLAVSLGERATINCKSSQNVLYSSNNKNCLAWYQQKPGQPPNLLIYWASTRESGVPDRFSGSGSGTDFTLTISSLQAEDVAVYYCQQYCRTPYTFGQGTKLEIK | > 1 |
| ADI-67122 (protein) chain 1: EVQLVESGGGLVQPGGSLRLSCIVSEFTFDSYWMSWVRQAPGKGLEWVANIRHDGSEKYYVDSVRGRFTISRDNAKNSLYLQMNSLRAEDSAVYYCARQSIYHDFTSGVGYSYYYTMDVWGQGTTVTVSS chain 2: SSELTQDPPVSVALGQTVTITCQGDSLRIYFATWYRQKAGQAPVLVIYGKNNRPSGIPDRFSGSRSGDTASLTITGAQAEDEADYYCSSRDRSGNSFVFGTGTKVTVL | > 1 |
| ADI-67968 (protein) chain 1: QVQLVQSGAEAKKPGASVKVSCKASGYTFTDYYLHWVRQAPGQGLEWMGIINPSGGSIAYAQKFQDRVTLTRDTSTSTVYMKLSSLRSEDTAVYYCARDLAVVPAALGLDYWGQGTLVTVSS chain 2: EIVLTQSPATLSLSPGERATLSCRASQSVSTYLAWYQQKPGQAPRLLIYDASNRATGIPARFSGSGSGTHFTLTISSLEPEDFAVYYCQQRNNWPPFTFGPGTKVDIK | > 1 |
| ADI-67638 (protein) chain 1: EVQLVQSGAEVKKPGESLKISCKGSGYRFSSYWIAWVRQTPGKGLEWMGSIYPGDSDTKFSPSFQGQVTISVDKSISTAYVQWNSLKASDTAMYYCARHFADCNQGICHSDYYSYMDVWGKGTTVTVSS chain 2: DIVMTQSPDSLAVSLGERATINCKSSRTVLHISNNKNYLAWYQQKPGQPPKLLIYWASTRESGVPDRFSGSGSGTDFTLTISSLQAEDVAVYYCQQYYSTVTFGQGTKLEIK | > 1 |
| ADI-67671 (protein) chain 1: QVQLQESGPGLVKSSQTLSLTCSVSGGSLNSGGYYWTWIRQHPGKGLEWIGYISYTGSINYNPSLRSRVSISVDTSKNQFSLRLSSVTVADTAVYYCARDRIADFQYYGMDVWGQGTTVTVSS chain 2: DIQMTQSPSTLSASVGDRVTITCRASQSISNLLTWYQQKPGKAPKLLIYKASTLESGVPSRFSGSASGTEFTLTISSLQPDDFATYYCQHQRTYGQGTKLEIK | > 1 |

— the supplement of paper PMC10115384
